According to the supplement of paper PMC11417369:
± gives the standard deviation of the averaged measurements. The list shows a part of the results.

system: PfAP2-EXP AP2 domain (GST-tagged); assay: gcPBM binding intensity (ln(normalized median fluorescence intensity)); higher = stronger DNA binding
Procedure, shortened: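 GST-tagged P. falciparum DNA-binding domains, expressed in E. coli (about 25 μg on average), were applied for 1 h to an Agilent 4 × 180k array of primer-extended double-stranded 36-bp intergenic genomic probes plus negative controls. The binding buffer was 1× PBS with 1% milk, 0.2 mg/ml BSA, 0.5% salmon testes DNA and 0.03% Triton X-100. Bound protein was detected with Alexa488 anti-GST antibody and scanned at 488 nm. Binding intensity is the highest Masliner-normalised natural-log median intensity across replicate spots of either probe orientation.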

Sequence	gcPBM binding intensity (ln)
TCCACACAATTTATAACATGCAAAAAGGCAATAATA [TGCATGCA_site773]	8.69 ± 0.42
ATGTTGAGTATATATACACACATACAGATATATATA [CACACA_site4967]	8.62 ± 0.32
TATAAGCTAAGTTGTTGTACAAAAAGGAAAAGTATA [XGTACX_site3741]	9.03 ± 0.59
GAGATAAAATAAAACACACACATATATATATAGAAT [CACACA_site2197]	8.69 ± 0.4
AAAAAAATCTCCAGTGTGCACAATCACATAATATAT [GTGCAC_site9833]	8.96 ± 0.26
TGTTACATAAAATGCACACTTTCAAATATGCTAATA [CACACA_site2925]	8.31 ± 0.28
AAATATAAATATACTCGTACATATATATATATATAT [XGTACX_site6940]	10.1 ± 0.41
AATATATGGTTTCATGATATTAAATTCAATTTAATG [GTGCAC_negctrl_site370]	8.16 ± 0.47
TATACGTATTTTATATGTACACATATACATATTTAT [XGTACX_site5301]	8.64 ± 0.33
TTTTCTTTTAAGTTTGTTTTACACTTTTTATTTTGA [CACACA_negctrl_site1581]	8.56 ± 0.56
ACTATATTTCATAACAGTACATATTCCTGAAACATC [XGTACX_site4924]	8.69 ± 0.4
CATGCTTATATGTGCACACACAAAAGAAAAGAAAAA [CACACA_site1655]	8.925 ± 0.064
ACAATATAAAAAAATTGTACATAATATATAATATTA [XGTACX_site1040]	8.3 ± 0.38
TATACATAAAAAAATTTTACCAGGTTAATACAAATA [CACACA_negctrl_site1171]	8.7 ± 0.4
TTCCTTTGTTGTCGTTGTACTTATATGGTTATAATT [XGTACX_site3082]	9.31 ± 0.37
TACCTTATGTTATATACACACATATAACATAATATA [CACACA_site6741]	8.52 ± 0.31
ATATATATATATAGTAGTACTCTCTCTGTATATATA [XGTACX_site3754]	10.1 ± 0.42
ATTTAGAAAAATAAAACACACATATATCTGTAAATA [CACACA_site6119]	8.46 ± 0.57
ATATGTAAAATATGGTGTACAATCAAATAAAAAAAA [XGTACX_site6270]	8.84 ± 0.33

Sequence	gcPBM binding intensity (ln)
ATTAATATATTTACCACACACCCATTTCGATTTTAT [CACACA_site3605]	8.88 ± 0.46
TATTTTATTTTTTGTTGTACATATATATTATATATA [XGTACX_site4513]	8.83 ± 0.41
CATATAAAAGGACACACACACACATATATATATATA [CACACA_site4674]	10 ± 0.43
ATGTTTAAATTTTTCAGTACATATATTCTAGTAAAA [XGTACX_site1010]	8.4 ± 0.41
GATATATTACTTAAAATACACACCATGGAAAAGTTT [CACACA_site2606]	8.66 ± 0.46
GAATATGTTAACATTTGTACATAAAATTTTTTACAA [XGTACX_site2444]	8.7 ± 0.3
AATATATATATATATCCACACACATACATATATTAA [CACACA_site7907]	8.54 ± 0.35
AAAATATTATTACAGAAACAAAAAGAAAAATATATA [GTGCAC_negctrl_site285]	8.66 ± 0.35
ATGGTTTTTATTTTATGTACTTACTAAAATGAATAA [XGTACX_site4317]	8.6 ± 0.38
TACATAAAAATATATGCATGTTCTTATTTAATAAAA [TGCATGCA_site743]	8.28 ± 0.35
TAATTGTAGACATGCACACACAAATATTATATATGT [CACACA_site845]	8.72 ± 0.45
CTAATATAGGTATGCACACACAATATGTACATATTT [CACACA_site7558]	8.77 ± 0.31
ATATAAAAAAGGGAGGTAAATGAATGTGAAACCCAA [GTGCAC_negctrl_site359]	8.88 ± 0.46
TTTTAATTAGTACAAACACACATATACACCCAAAAA [CACACA_site5422]	8.97 ± 0.4
TTTCAAATATATATAGCACACAAGGTATAATATAAA [CACACA_site877]	8.53 ± 0.37
TTCACTAATAAATACGCACACATATACATATATATA [CACACA_site1383]	8.72 ± 0.17
TAATTTTTTTTAAACACACACATTACATTCAAAAAT [CACACA_site127]	8.47 ± 0.3
AAGGTATAGAAACACACACACGTGAATATAGTTTAA [CACACA_site5109]	8.62 ± 0.38
TATATAACATATATATGTACACATAATATCAGATTT [XGTACX_site1041]	8.45 ± 0.33

Sequence	gcPBM binding intensity (ln)
CGTTATATAATAAAGGTGCATAGATATATCATTATA [GTGCAC_site9774]	8.63 ± 0.15
AATATTTTTCAATTTCATGTGCATTCATTGAAGTTA [CACACA_negctrl_site1232]	8.55 ± 0.42
TTCTTAAATATATTCAACATACATAATATATAATCT [CACACA_negctrl_site1806]	8.33 ± 0.45
TATATATGTATATATTGTACTTTAAGACAAATATAT [XGTACX_site1052]	8.41 ± 0.46
AAAAATAGAGCAGCTCTCATATTTTTATGTGCAATA [CACACA_negctrl_site837]	8.42 ± 0.51
ACAAAAATATTTGTAAAAAGAAATATAAATAAATAA [TGCATGCA_negctrl_site357]	8.54 ± 0.42
GCATTTATGAAAAATGTACACACATCAAATGCTTAT [CACACA_site9347]	8.65 ± 0.52
TATTACACACAATATTGTACACATAGGAAAAATATT [XGTACX_site1726]	8.77 ± 0.4
AGGATATATTATATGTACACACACATATAAGGGATT [GTGCAC_negctrl_site47]	8.58 ± 0.41
TATTTTTTACATTCGTGTACGCATTTTTGTGAATTT [XGTACX_site5339]	8.82 ± 0.32
TCTAATACACAATGTTGTACATATTAATATATATGT [XGTACX_site2931]	8.69 ± 0.38
ATCATTCTTAAACCGTGTACTTATTATTTTTTTTTT [XGTACX_site2798]	9.01 ± 0.35
CATCCGTTGATATATGCATGCATATTGTTATTACCA [TGCATGCA_site868]	9.92 ± 0.16
AAAATACACGATAGTTGTACATTAAATGTATACAAT [XGTACX_site360]	8.71 ± 0.36
AAATGACTATATAAAAGTACTAGAAAGTATAAATAT [XGTACX_site944]	8.76 ± 0.4
AGGAGGATAGTTCACAGTACCCAGTAACTCTACGGA [XGTACX_site1997]	8.53 ± 0.43
CCTCTCATTTTATATAGTACATATTTCAAAAAAAAA [XGTACX_site488]	8.43 ± 0.26
GCATATATGGATATATAGGTATATATAAATGCAATA [GTGCAC_negctrl_site24]	8.54 ± 0.39
